In the supplement of paper PMC12297408:
Structures can show the parent of a compound that is named as a salt. The whole screen tested about 1,300 compounds, of which about 40 (3%) showed activity. The list shows a part of the results.

System: Plasmodium falciparum NF54/iGP1_RE9H ulg8 stage V gametocytes
Assay: gametocyte viability (luciferase signal relative to DMSO control) (% of DMSO control); higher = less gametocytocidal activity, active = 50 or less
Conditions: exposure time: 72 h
Method in brief: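 Stage V gametocytes of the NF54/iGP1_RE9Hulg8 line (day 12; ~2.5% gametocytemia, 3% hematocrit), in medium containing 0.5% Albumax II, were dispensed into 96-well plates with compounds spotted in nanolitre volumes from 10 mM DMSO stocks, for final concentrations of 10 µM or 1 µM in a single well each. After 72 h at 37 °C, 90 µl from each well was combined with 10 µl D-luciferin (30 mg/ml), and luminescence was measured on an IVIS Lumina II. Viability was expressed against the mean of the DMSO vehicle wells on the same plate.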

CS(=O)(=O)OCCCCOS(C)(=O)=O [Busulfan]
gametocyte viability (concentration: 1 µM): inactive: 87.9 | gametocyte viability (concentration: 10 µM): inactive: 82.2

Cc1c(NC(=O)c2cccnc2)c(=O)n(-c2ccccc2)n1C [Nifenazone]
gametocyte viability (concentration: 1 µM): inactive: 85.9 | gametocyte viability (concentration: 10 µM): inactive: 84

CC[C@@H]1C(=O)OC[C@@H]1Cc1cncn1C [Pilocarpine nitrate]
gametocyte viability (concentration: 1 µM): inactive: 98.2 | gametocyte viability (concentration: 10 µM): inactive: 98

CCN(CC)CC(=O)Nc1c(C)cccc1C [Lidoca? hydrochloride]
gametocyte viability (concentration: 1 µM): inactive: 83.6 | gametocyte viability (concentration: 10 µM): inactive: 87.7

CC(=O)OCC(=O)[C@@]12OC(C)(C)O[C@@H]1C[C@H]1[C@@H]3C[C@H](F)C4=CC(=O)C=C[C@]4(C)[C@@]3(F)[C@@H](O)C[C@@]12C [Fluocinonide]
gametocyte viability (concentration: 1 µM): inactive: 80.7 | gametocyte viability (concentration: 10 µM): inactive: 84.4

c1ccc2c(CC3=NCCN3)cccc2c1 [Naphazoline hydrochloride]
gametocyte viability (concentration: 1 µM): inactive: 82.2 | gametocyte viability (concentration: 10 µM): inactive: 85.6

CO[C@@H]1[C@@H](O[C@@H]2O[C@H](C)[C@@H](O[C@H]3C[C@@](C)(O)[C@@H](OC(=O)CC(C)C)[C@H](C)O3)[C@H](N(C)C)[C@H]2O)[C@@H](CC=O)C[C@@H](C)[C@@H](O)/C=C/C=C/C[C@@H](C)OC(=O)C[C@H]1OC(C)=O [Josamycin]
gametocyte viability (concentration: 1 µM): inactive: 80.1 | gametocyte viability (concentration: 10 µM): inactive: 78.9

c1coc(CNc2ncnc3nc[nH]c23)c1 [6-Furfurylaminopurine]
gametocyte viability (concentration: 1 µM): inactive: 86.5 | gametocyte viability (concentration: 10 µM): inactive: 75.6

CC(=O)CC(c1ccccc1)c1c(O)c2ccccc2oc1=O (stereo not drawn) [Warfarin]
gametocyte viability (concentration: 1 µM): inactive: 95.9 | gametocyte viability (concentration: 10 µM): inactive: 94.7

COc1cccc2c1C(=O)c1c(O)c3c(c(O)c1C2=O)C[C@@](O)(C(C)=O)C[C@@H]3O[C@H]1C[C@H](N)[C@H](O)[C@H](C)O1 [Daunorubicin hydrochloride]
gametocyte viability (concentration: 1 µM): inactive: 69.8 | gametocyte viability (concentration: 10 µM): active: 7.37

C=CC1=C(C(=O)O)N2C(=O)[C@@H](NC(=O)/C(=N\O)c3csc(N)n3)[C@H]2SC1 [Cefdinir]
gametocyte viability (concentration: 1 µM): inactive: 80.8 | gametocyte viability (concentration: 10 µM): inactive: 83.8

CC(=O)NS(=O)(=O)c1ccc(N)cc1 [Sulfacetamide sodic hydrate]
gametocyte viability (concentration: 1 µM): inactive: 85.5 | gametocyte viability (concentration: 10 µM): inactive: 90.3

Cc1cn([C@H]2C=C[C@@H](CO)O2)c(=O)[nH]c1=O [Stavudine]
gametocyte viability (concentration: 1 µM): inactive: 89.9 | gametocyte viability (concentration: 10 µM): inactive: 90

CCN(CC)CCNC(C(=O)OCCC(C)C)c1ccccc1 (stereo not drawn) [Camylofine chlorhydrate]
gametocyte viability (concentration: 1 µM): inactive: 79.9 | gametocyte viability (concentration: 10 µM): inactive: 85.5

OCCN(CCO)c1nc(N2CCCCC2)c2nc(N(CCO)CCO)nc(N3CCCCC3)c2n1 [Dipyridamole]
gametocyte viability (concentration: 1 µM): inactive: 64.1 | gametocyte viability (concentration: 10 µM): active: 41.1

CN(c1nccc(=O)[nH]1)C1CCN(c2nc3ccccc3n2Cc2ccc(F)cc2)CC1 [Mizolastine]
gametocyte viability (concentration: 1 µM): inactive: 94.4 | gametocyte viability (concentration: 10 µM): inactive: 73.8

O=C(O)c1ccccc1C(=O)Nc1ccc(S(=O)(=O)Nc2nccs2)cc1 [Phthalylsulfathiazole]
gametocyte viability (concentration: 1 µM): inactive: 82.3 | gametocyte viability (concentration: 10 µM): inactive: 85.4

CN1CCN(C(c2ccccc2)c2ccccc2)CC1 [Cyclizine hydrochloride]
gametocyte viability (concentration: 1 µM): inactive: 86.8 | gametocyte viability (concentration: 10 µM): inactive: 85.3

C#C[C@]1(O)CC[C@H]2[C@@H]3CCC4=CCCC[C@@H]4[C@H]3CC[C@@]21C [Lynestrenol]
gametocyte viability (concentration: 1 µM): inactive: 86 | gametocyte viability (concentration: 10 µM): inactive: 89.2

C[C@H](CCC(=O)O)[C@H]1CC[C@H]2[C@@H]3[C@@H](O)C[C@@H]4C[C@H](O)CC[C@]4(C)[C@H]3CC[C@]12C [Urosiol]
gametocyte viability (concentration: 1 µM): inactive: 98.8 | gametocyte viability (concentration: 10 µM): inactive: 99.5

O=C(CCCN1CCN(c2ccccn2)CC1)c1ccc(F)cc1 [Azaperone]
gametocyte viability (concentration: 1 µM): inactive: 88.3 | gametocyte viability (concentration: 10 µM): inactive: 91.4

NC[C@@H]1O[C@@H](O[C@H]2[C@H](O)[C@@H](O[C@H]3O[C@H](CO)[C@@H](O)[C@H](N)[C@H]3O)[C@H](N)C[C@@H]2N)[C@@H](O)[C@H](O)[C@H]1O [Kanamycin A sulfate]
gametocyte viability (concentration: 1 µM): inactive: 93.9 | gametocyte viability (concentration: 10 µM): inactive: 94.8

CC1CC(OC(=O)c2ccccc2O)CC(C)(C)C1 (stereo not drawn) [Homosalate]
gametocyte viability (concentration: 1 µM): inactive: 88.1 | gametocyte viability (concentration: 10 µM): inactive: 84

COC(=O)C1=C(C#N)NC(C)=C(C(=O)OC(C)C)C1c1cccc([N+](=O)[O-])c1 (stereo not drawn) [Nilvadipine]
gametocyte viability (concentration: 1 µM): inactive: 83.1 | gametocyte viability (concentration: 10 µM): inactive: 82.2

N[C@@H](Cc1cc(I)c(Oc2ccc(O)c(I)c2)c(I)c1)C(=O)O [Liothyronine]
gametocyte viability (concentration: 1 µM): inactive: 85.9 | gametocyte viability (concentration: 10 µM): inactive: 84.1

Nc1c2ccccc2nc2ccccc12 [Aminacrine]
gametocyte viability (concentration: 1 µM): inactive: 85.8 | gametocyte viability (concentration: 10 µM): inactive: 81.4

CN1CCC(=C2c3ccccc3Sc3ccccc32)CC1 [Pimethixene maleate]
gametocyte viability (concentration: 1 µM): inactive: 90.9 | gametocyte viability (concentration: 10 µM): inactive: 88.8

CC1(C)O[C@@H]2C[C@H]3[C@@H]4CCC5=CC(=O)C=C[C@]5(C)[C@H]4[C@@H](O)C[C@]3(C)[C@]2(C(=O)CO)O1 [Desonide]
gametocyte viability (concentration: 1 µM): inactive: 80 | gametocyte viability (concentration: 10 µM): inactive: 75.7

O=C(CCCCCCC(=O)Nc1ccccc1)NO [Vorinostat]
gametocyte viability (concentration: 1 µM): inactive: 116 | gametocyte viability (concentration: 10 µM): inactive: 73.5

CC[C@H]1OC(=O)C[C@@H](O)[C@H](C)[C@@H](O[C@@H]2O[C@H](C)[C@@H](O[C@H]3C[C@@](C)(O)[C@@H](O)[C@H](C)O3)[C@H](N(C)C)[C@H]2O)[C@@H](CC=O)C[C@@H](C)C(=O)/C=C/C(C)=C/[C@@H]1CO[C@@H]1O[C@H](C)[C@@H](O)[C@@H](OC)[C@H]1OC [Tylosin]
gametocyte viability (concentration: 1 µM): inactive: 93.3 | gametocyte viability (concentration: 10 µM): inactive: 91.7

C[C@]12C[C@H](O)[C@H]3[C@@H](CCC4=CC(=O)CC[C@@]43C)[C@@H]1CC[C@@H]2C(=O)CO [Corticosterone]
gametocyte viability (concentration: 1 µM): inactive: 93.8 | gametocyte viability (concentration: 10 µM): inactive: 90.4

COC(=O)C1=C(C)NC(C)=C(C(=O)OC2CCCN(Cc3ccccc3)C2)C1c1cccc([N+](=O)[O-])c1 (stereo not drawn) [Benidipine hydrochloride]
gametocyte viability (concentration: 1 µM): inactive: 79.4 | gametocyte viability (concentration: 10 µM): inactive: 70.7

Nc1c2c(nc3ccccc13)CCCC2 [Tacrine hydrochloride]
gametocyte viability (concentration: 1 µM): inactive: 82.3 | gametocyte viability (concentration: 10 µM): inactive: 79.9

CCN(CC)C(=S)SSC(=S)N(CC)CC [Disulfiram]
gametocyte viability (concentration: 1 µM): inactive: 91.9 | gametocyte viability (concentration: 10 µM): inactive: 55.8

C/C(=C(\CCOP(=O)(O)O)SC(=O)c1ccccc1)N(C=O)Cc1cnc(C)nc1N [Benfotiamine]
gametocyte viability (concentration: 1 µM): inactive: 90.6 | gametocyte viability (concentration: 10 µM): inactive: 96

C[C@H](N)[C@H](O)c1cccc(O)c1 [Metaraminol bitartrate]
gametocyte viability (concentration: 1 µM): inactive: 88.5 | gametocyte viability (concentration: 10 µM): inactive: 87

CCN(CC)CCOC(=O)C(Cc1cccc2ccccc12)CC1CCCO1 (stereo not drawn) [Nafronyl oxalate]
gametocyte viability (concentration: 1 µM): inactive: 99.3 | gametocyte viability (concentration: 10 µM): inactive: 90.6

O=C1CN(/N=C/c2ccc([N+](=O)[O-])o2)C(=O)N1 [Nitrofurantoin]
gametocyte viability (concentration: 1 µM): inactive: 83.4 | gametocyte viability (concentration: 10 µM): inactive: 82.5

Cc1ccccc1OCC(O)CO (stereo not drawn) [Mephenesin]
gametocyte viability (concentration: 1 µM): inactive: 97.9 | gametocyte viability (concentration: 10 µM): inactive: 91.8

CC1(C)S[C@@H]2[C@H](NC(=O)[C@H](C(=O)O)c3ccsc3)C(=O)N2[C@H]1C(=O)O [Ticarcillin sodium]
gametocyte viability (concentration: 1 µM): inactive: 81.2 | gametocyte viability (concentration: 10 µM): inactive: 80

Cc1cc(NS(=O)(=O)c2ccc(N)cc2)no1 [Sulfamethoxazole]
gametocyte viability (concentration: 1 µM): inactive: 82.4 | gametocyte viability (concentration: 10 µM): inactive: 81.5

CN[C@@H]1[C@@H](O)[C@@H](O[C@@H]2[C@@H](O)[C@H](O[C@H]3OC(CN)=CC[C@H]3N)[C@@H](N)C[C@H]2N)OC[C@]1(C)O [Sisomicin sulfate]
gametocyte viability (concentration: 1 µM): inactive: 88.2 | gametocyte viability (concentration: 10 µM): inactive: 87.3

O=C1CN(/N=C/c2ccc(-c3ccc([N+](=O)[O-])cc3)o2)C(=O)N1 [Dantrolene sodium salt]
gametocyte viability (concentration: 1 µM): inactive: 91.7 | gametocyte viability (concentration: 10 µM): inactive: 103

CCOC(=O)n1ccn(C)c1=S [Carbimazole]
gametocyte viability (concentration: 1 µM): inactive: 78.6 | gametocyte viability (concentration: 10 µM): inactive: 84.9

CCCC1O[C@@H]2C[C@H]3[C@@H]4CCC5=CC(=O)C=C[C@]5(C)[C@H]4[C@@H](O)C[C@]3(C)[C@]2(C(=O)CO)O1 (stereo partly drawn) [Budesonide]
gametocyte viability (concentration: 1 µM): inactive: 85.4 | gametocyte viability (concentration: 10 µM): inactive: 84.4

CC(C(=O)O)c1cccc(C(=O)c2ccccc2)c1 (stereo not drawn) [Ketoprofen]
gametocyte viability (concentration: 1 µM): inactive: 86.2 | gametocyte viability (concentration: 10 µM): inactive: 87.1

CCOC(=O)C1=C(C)NC(C)=C(C(=O)OCC)C1c1ccccc1/C=C/C(=O)OC(C)(C)C [Lacidipine]
gametocyte viability (concentration: 1 µM): inactive: 97.1 | gametocyte viability (concentration: 10 µM): inactive: 96.5

CCOc1cc(CC(=O)N[C@@H](CC(C)C)c2ccccc2N2CCCCC2)ccc1C(=O)O [Repaglinide]
gametocyte viability (concentration: 1 µM): inactive: 83 | gametocyte viability (concentration: 10 µM): inactive: 84.7

C#C[C@]1(O)CC[C@H]2[C@@H]3CCc4cc(O)ccc4[C@H]3CC[C@@]21C [Ethinylestradiol]
gametocyte viability (concentration: 1 µM): inactive: 91.5 | gametocyte viability (concentration: 10 µM): inactive: 68.6

CCCCN(CCCC)CCC(O)c1cc2c(Cl)cc(Cl)cc2c2cc(C(F)(F)F)ccc12 (stereo not drawn) [Halofantrine hydrochloride]
gametocyte viability (concentration: 1 µM): inactive: 84.7 | gametocyte viability (concentration: 10 µM): inactive: 70.2

Nc1nc2c(ncn2COCCO)c(=O)[nH]1 [Acyclovir]
gametocyte viability (concentration: 1 µM): inactive: 98.3 | gametocyte viability (concentration: 10 µM): inactive: 90.8

CC(C)(C)NC(=O)[C@@H]1C[C@@H]2CCCC[C@@H]2CN1C[C@@H](O)[C@H](Cc1ccccc1)NC(=O)[C@H](CC(N)=O)NC(=O)c1ccc2ccccc2n1 [Saquinavir mesylate]
gametocyte viability (concentration: 1 µM): inactive: 82.4 | gametocyte viability (concentration: 10 µM): inactive: 78.9

CCCCCN(CCCCC)C(=O)C(CCC(=O)O)NC(=O)c1ccc(Cl)c(Cl)c1 (stereo not drawn) [Lorglumide sodium salt]
gametocyte viability (concentration: 1 µM): inactive: 93.2 | gametocyte viability (concentration: 10 µM): inactive: 91.3

COc1c(N2C[C@@H]3CCCN[C@@H]3C2)c(F)cc2c(=O)c(C(=O)O)cn(C3CC3)c12 [Moxifloxacin]
gametocyte viability (concentration: 1 µM): inactive: 83.8 | gametocyte viability (concentration: 10 µM): inactive: 81.1
